Test results: PMC3519786, “Novel Interactions between FOXM1 and CDC25A Regulate the Cell Cycle” (PLoS ONE, 2012)
Substitutions are numbered along the chain they refer to. These are yes or no findings as the source states them, for the method shown. Some results given as binding are weak or reduced against the parent protein; the word gives no strength.

Experiments:
Experiment in all cases: two-hybrid; mammalian two-hybrid (Checkmate, Promega) in U2OS; bait pBIND (GAL4 DNA-binding domain)-FOXM1, prey pACT (VP16 activation domain)-CDC25A, reporter pG5-luc; firefly normalised to Renilla luciferase; 2 days
GAL4-FOXM1 T600A (human) = biological target: T1, GAL4-FOXM1 T600A (human) (UniProt Q08050)
T1 sequence: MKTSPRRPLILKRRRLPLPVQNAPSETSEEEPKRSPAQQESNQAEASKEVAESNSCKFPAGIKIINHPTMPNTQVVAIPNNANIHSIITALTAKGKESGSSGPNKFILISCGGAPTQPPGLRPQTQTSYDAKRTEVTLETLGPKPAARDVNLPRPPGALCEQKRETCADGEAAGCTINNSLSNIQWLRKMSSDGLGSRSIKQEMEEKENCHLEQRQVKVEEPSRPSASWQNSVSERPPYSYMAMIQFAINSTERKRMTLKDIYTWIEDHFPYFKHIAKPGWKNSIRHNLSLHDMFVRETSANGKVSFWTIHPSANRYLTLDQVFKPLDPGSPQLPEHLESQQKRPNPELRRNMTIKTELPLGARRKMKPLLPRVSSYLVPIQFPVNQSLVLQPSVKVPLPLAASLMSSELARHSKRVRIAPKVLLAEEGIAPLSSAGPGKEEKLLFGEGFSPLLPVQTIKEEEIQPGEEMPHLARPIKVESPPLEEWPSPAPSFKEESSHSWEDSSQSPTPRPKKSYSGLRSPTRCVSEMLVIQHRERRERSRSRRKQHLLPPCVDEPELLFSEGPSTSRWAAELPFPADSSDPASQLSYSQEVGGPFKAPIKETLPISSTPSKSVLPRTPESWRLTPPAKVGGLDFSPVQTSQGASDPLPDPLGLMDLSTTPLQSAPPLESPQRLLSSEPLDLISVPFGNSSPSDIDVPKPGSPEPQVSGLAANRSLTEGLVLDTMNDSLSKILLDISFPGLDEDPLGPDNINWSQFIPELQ

[1] = biological target: T2, GAL4-FOXM1 T600A/T611A/T620A (human) (UniProt Q08050)
T2 sequence: T1 sequence with T611A, T620A

GAL4-FOXM1 L656A (human) = biological target: T3, GAL4-FOXM1 L656A (human) (UniProt Q08050)
T3 sequence: T1 sequence with A600T, L656A

Measured: binding

B1: VP16-CDC25A (natural protein, UniProt P30304 1-524, looked up)
chain: MELGPEPPHRRRLLFACSPPPASQPVVKALFGASAAGGLSPVTNLTVTMDQLQGLGSDYEQPLEVKNNSNLQRMGSSESTDSGFCLDSPGPLDSKENLENPMRRIHSLPQKLLGCSPALKRSHSDSLDHDIFQLIDPDENKENEAFEFKKPVRPVSRGCLHSHGLQEGKDLFTQRQNSAPARMLSSNERDSSEPGNFIPLFTPQSPVTATLSDEDDGFVDLLDGENLKNEEETPSCMASLWTAPLVMRTTNLDNRCKLFDSPSLCSSSTRSVLKRPERSQEESPPGSTKRRKSMSGASPKESTNPEKAHETLHQSLSLASSPKGTIENILDNDPRDLIGDFSKGYLFHTVAGKHQDLKYISPEIMASVLNGKFANLIKEFVIIDCRYPYEYEGGHIKGAVNLHMEEEVEDFLLKKPIVPTDGKRVIVVFHCEFSSERGPRMCRYVRERDRLGNEYPKLHYPELYVLKGGYKEFFMKCQSYCEPPSYRPMHHEDFKEDLKKFRTKSRTWAGEKSKREMYSRLKKL
notes: CDC25A (cell division cycle 25A) dual phosphatase; plasmid bought from Origene; also called pACT-CDC25A; wild-type CDC25A; source: mammalian two-hybrid fusion, U2OS, transfected
binds: all assays above
